Assay results taken from PubChem BioAssay AID485297 (National Center for Advancing Translational Sciences (NCATS), 2010).
Out of some 320,000 compounds screened, about 9,100 (2.8%) were called active. The shares of active, inactive and inconclusive entries below differ from those in the screen. Calls follow the shape of the dose curve; as a rule, active = well fitted activation curve with a large enough effect; inconclusive = small, poorly fitted or top-dose-only effect; inactive = no such curve, though single readings can be large or run the other way. Potencies of inconclusive entries are left out as doubtful fits.

test: qHTS Assay for Rab9 Promoter Activators; details: Huh7 Rab9 promoter-luciferase reporter, luminescence, 24 h; series mostly up to 9.22 µM; activation, negative = inhibition: at the top concentration; also: nearly all actives have a fitted effect of over 60% in size; as to activation, negative = inhibition: % of control where 0% means no effect
Method in brief: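 Luciferase signal after 10 min detection reagent at ambient indicates Rab9 promoter upregulation; stably transfected Huh7 cells were treated 24 h with compound in DMSO at 37 °C, 5% CO2.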
Potency is read from the fitted curve at half-maximal effect; tags tell the direction and shape of the fitted curve.

Compound	Potency	activation, negative = inhibition
CCOC(=O)c1cnc(Nc2nc3ccccc3o2)nc1CSC(=S)N1CCCCC1	inconclusive [activator, single point]	–
c1ccc(-c2noc(CCC3CCCC3)n2)cc1	inconclusive [activator, partial curve]	–
CN1CCN(C(=O)C2CC(=O)N(c3ccc(Cl)cc3)C2)CC1 (stereo not given)	–	inactive: 0.173%
C(=N\Nc1nc(-c2ccccc2)cs1)/c1ccco1	active: 3.16 µM	–
O=c1[nH]c(O)c(/C=C2\C=Nc3ccccc32)[nH]1	–	inactive: 0.766%
COc1ccc(OCCOc2ccc(C)nc2[N+](=O)[O-])cc1	inconclusive [activator, single point]	–
Cc1c(NC(=O)Nc2cccc(C(F)(F)F)c2)c(=O)n(-c2ccccc2)n1C	–	inactive: -0.246%
CCOC(=O)N1CCN(/C=C(\C#N)c2nc3ccccc3s2)CC1	inconclusive [activator, single point]	–
O=C1c2ccccc2-c2nc3ccccc3cc21	active: 5.01 µM	–
CC(Cc1cccs1)NC(=O)c1cccs1 (stereo not given)	inconclusive [activator, partial curve]	–
Cc1cc(=O)n2[nH]c(-c3cccc(Cl)c3)cc2n1	inconclusive [activator, single point]	–
Cc1ccc(C(=O)NNC(=O)c2nn(-c3ccc(F)cc3)ccc2=O)cc1	–	inactive: -6.18%
COc1ccc2oc(C(=O)OCC(=O)NCCc3ccccc3)c(C)c2c1	–	inactive: 9.87%
CC(=O)c1cccc(OCc2cc(C(=O)NCCC3=CCCCC3)no2)c1	inconclusive [activator, full curve]	–
Oc1ccc(Nc2ncnc3c2oc2ccccc23)cc1	inconclusive [activator, single point]	–
COC(=O)Cc1ccc(NC(=O)c2ccc(Br)o2)cc1	inconclusive [activator, single point]	–
COc1ccc2oc(=N)c(C(=O)Nc3ccc(C)cc3)cc2c1	inconclusive [activator, partial curve]	–
COC(=O)c1ccc(/C=C2\Oc3ccccc3NC2=O)cc1	inconclusive [activator, partial curve]	–
COc1ccc(NC(=O)NCc2ccccn2)c(OC)c1	–	inactive: -1.8%
COc1ccccc1C1CC(c2cccs2)=Nc2ccccc2S1 (stereo not given)	–	inactive: 1.58%
CCC(=O)Nc1cccc(-n2nnnc2SCC(=O)N2CCCCC2)c1	inconclusive [activator, single point]	–
O=C(CSCc1ccc(Cl)cc1)N1CCCCC1	inconclusive [activator, partial curve]	–
COc1ccc(C2OC(=O)CC2C(=O)NCc2ccc(Cl)cc2)cc1OC (stereo not given)	inconclusive [activator, single point]	–
O=C(COc1ccc(Br)cc1Br)NNC(=O)c1cccs1	inconclusive [activator, partial curve]	–
CCSc1nnc(Nc2ccccc2)s1	inconclusive [activator, single point]	–
Brc1cc2c(cc1/C=N/Nc1nc3ccccc3s1)OCO2	inconclusive [activator, single point]	–
CCOC(=O)c1c(C=O)c(C)n(Cc2ccccc2)c1C	–	inactive: 0.451%

Compound	Potency	activation, negative = inhibition
COc1ccc(CNc2ccc([N+](=O)[O-])cn2)cc1	active: 3.98 µM	–
Clc1ccc(-c2cn3cccnc3n2)cc1Cl	inconclusive [activator, single point]	–
COc1ccc(C(=O)CSc2nnn(-c3cccc(NC(C)=O)c3)n2)cc1	inconclusive [activator, partial curve]	–
Cc1ccc(CC(=O)NCC2CCCCC2)cc1	inconclusive [activator, partial curve]	–
CSc1ccccc1-c1nnc(-c2ccc(Cl)c(Cl)c2)o1	inconclusive [activator, single point]	–
Brc1ccc(N=Nc2ccc3ccccc3n2)cc1	inconclusive [activator, full curve]	–
COC(=O)c1cc2c(s1)CS(=O)C2 (stereo not given)	active: 3.98 µM	–
O=C(CCl)Nc1c(C(=O)Nc2ccc3c(c2)OCCO3)oc2ccccc12	active: 3.98 µM	–
COc1ccc(OC)c(NC(=O)COC(=O)CNC(=O)c2ccc(OC)c(OC)c2)c1	–	inactive: 1.75%
CC(NC(=O)c1ccco1)C(=O)N1CCc2ccccc2C1 (stereo not given)	–	inactive: -11.3%
Cc1ccc(NC(=O)Nc2cccc([N+](=O)[O-])c2)nc1	inconclusive [activator, single point]	–
Cc1cccc(-n2c(SCC(=O)c3c(N)n(C4CC4)c(=O)[nH]c3=O)nnc2N2CCOCC2)c1	–	inactive: -2.72%
CCn1c(C)nc2cc(C(=O)OCCC(F)(F)F)ccc21	inconclusive [activator, single point]	–
CC(C)OC(=O)CSc1nnnn1-c1ccc2c(c1)OCCO2	inconclusive [activator, partial curve]	–
CCOc1ccccc1NC(=O)c1ccc2ccccc2c1	inconclusive [activator, single point]	–
COc1ccc(NC(=O)c2ccccc2C)cc1	active: 3.16 µM	–
COc1ccc(S(=O)(=O)CC(=O)c2cc3cc(Br)ccc3oc2=O)cc1	–	inactive: -1.19%
CC(NC(=O)C(C)N1CCN(Cc2ccccc2)CC1)c1ccc(F)cc1 (stereo not given)	inconclusive [activator, single point]	–
CC1CCCN(c2nc(NCc3ccco3)nc(N)c2[N+](=O)[O-])C1 (stereo not given)	–	inactive: -14.8%
CCc1ccccc1NC(=O)CSC1=C(C#N)C(c2ccc3c(c2)OCO3)C2=C(CCCC2=O)N1 (stereo not given)	–	inactive: 3.55%
CCn1ncc(C(=O)Nc2cc(C)on2)c1C	inconclusive [activator, single point]	–
CCCC(=O)NC(=S)Nc1ccc(Cl)cn1	inconclusive [activator, single point]	–
O=C(Nc1ccc(Br)cn1)c1ccc2ccccc2c1	active: 1.12 µM	–
CC/C(=N\NC(=O)c1ccc(N(C)C)cc1)c1ccccc1	inconclusive [activator, single point]	–
Cc1cccc(NC(=O)c2sc(C)nc2C)c1	inconclusive [activator, partial curve]	–
CCOc1ccc2nc(-c3ccccc3)[nH]c2c1	inconclusive [activator, full curve, poor fit]	–
Cc1csc(NC(=O)C2CCCCC2)n1	inconclusive [activator, partial curve]	–

Compound	Potency	activation, negative = inhibition
COc1cccc(C(=O)c2sc(NC(C)C)nc2N)c1	–	inactive: -0.999%
O=C(NNC(=O)c1ccccc1O)c1ccc(Br)cc1	inconclusive [activator, partial curve]	–
Cc1cc(C)c2c(N)c(C(=O)Nc3ccc([N+](=O)[O-])cc3)sc2n1	active: 0.794 µM	–
Cc1ccc([N+](=O)[O-])cc1S(=O)(=O)Nc1ccccn1	–	inactive: 0.341%
CCC(=O)Nc1nc2ccc3sc(C)nc3c2s1	inconclusive [activator, partial curve]	–
O=C(O)CN1C(=O)/C(=C\c2cccc(OCc3ccc(Cl)cc3Cl)c2)SC1=S	inconclusive [activator, partial curve]	–
COc1ccccc1Nc1nc2nonc2[nH]c1=O	–	inactive: -9.55%
CC(C)(C)c1ccc(NC(=O)C2=CC=CN3CCS(=O)(=O)N=C23)cc1	inconclusive [activator, single point]	–
COc1ccccc1N1CCN(C(=O)CNC(=O)c2ccc(Cl)cc2Cl)CC1	–	inactive: 16.4%
CCCCOc1ccc(-c2nnn(CCC(=O)N3CCOCC3)n2)cc1	inconclusive [activator, single point]	–
CN(c1ccc(O)cc1)S(=O)(=O)c1ccc2ccccc2c1	active: 3.98 µM	–
COc1ccc(Nc2cc(Nc3ccccc3)ncn2)cc1	active: 2 µM	–
COc1cc2c(cc1OC)-c1cc(OCc3ccccc3Cl)nc(=O)n1CC2	inconclusive [activator, single point]	–
COCC(=O)Nc1nnc(-c2ccc(C(C)(C)C)cc2)s1	active: 0.562 µM	–
O=C(NC(=Nc1nc2ccccc2o1)NC(=O)c1ccccc1)c1ccccc1	inconclusive [activator, partial curve]	–
O=C(O)c1c2c(nc3ccc(S(=O)(=O)N4CCC(C(=O)NC5CCCCCC5)CC4)cc13)CCCC2	–	inactive: -2.56%
C/C(=N\O)c1ccc2c3c([nH]c2c1)CCCC3	inconclusive [activator, single point]	–
CC(=O)Nc1nonc1NC(=O)c1ccc(C(C)(C)C)cc1	active: 3.55 µM	–
Cn1nnnc1SCC(=O)Nc1ccc2c(c1)OCO2	inconclusive [activator, single point]	–
Cc1cc(N=Nc2c(O)c3ccccc3[nH]c2=O)ccc1N=Nc1ccc(C(=O)N(C)C)cc1	inconclusive [activator, partial curve]	–
CN(C)CCNc1nc2sc3c(c2c(=O)n1CCc1ccccc1)CCCCC3	–	inactive: -8.24%
c1ccc2oc(-c3csc(NCC4CCCO4)n3)cc2c1 (stereo not given)	active: 0.398 µM	–
CCOc1c(C)cc(S(=O)(=O)NCc2ccccn2)c(C)c1C	–	inactive: -3.14%
O=C(Nc1cccc(F)c1)c1ccc2ncsc2c1	active: 3.55 µM	–
Cc1ccccc1NC(=O)c1onc2c1CCCC2	active: 2.51 µM	–
CCCc1[nH]nc2c1C(c1ccc(OCCN3CCOCC3)c(OC)c1)C(C#N)=C(N)O2 (stereo not given)	inconclusive [activator, partial curve]	–
